# Data: the supplement of paper PMC8728848
# Some of the results follow.
# B1: P-Selectin (Homo sapiens), P16109 (protein)
# chain: MANCQIAILYQRFQRVVFGISQLLCFSALISELTNQKEVAAWTYHYSTKAYSWNISRKYCQNRYTDLVAIQNKNEIDYLNKVLPYYSSYYWIGIRKNNKTWTWVGTKKALTNEAENWADNEPNNKRNNEDCVEIYIKSPSAPGKWNDEHCLKKKHALCYTASCQDMSCSKQGECLETIGNYTCSCYPGFYGPECEYVRECGELELPQHVLMNCSHPLGNFSFNSQCSFHCTDGYQVNGPSKLECLASGIWTNKPPQCLAAQCPPLKIPERGNMTCLHSAKAFQHQSSCSFSCEEGFALVGPEVVQCTASGVWTAPAPVCKAVQCQHLEAPSEGTMDCVHPLTAFAYGSSCKFECQPGYRVRGLDMLRCIDSGHWSAPLPTCEAISCEPLESPVHGSMDCSPSLRAFQYDTNCSFRCAEGFMLRGADIVRCDNLGQWTAPAPVCQALQCQDLPVPNEARVNCSHPFGAFRYQSVCSFTCNEGLLLVGASVLQCLATGNWNSVPPECQAIPCTPLLSPQNGTMTCVQPLGSSSYKSTCQFICDEGYSLSGPERLDCTRSGRWTDSPPMCEAIKCPELFAPEQGSLDCSDTRGEFNVGSTCHFSCDNGFKLEGPNNVECTTSGRWSATPPTCKGIASLPTPGLQCPALTTPGQGTMYCRHHPGTFGFNTTCYFGCNAGFTLIGDSTLSCRPSGQWTAVTPACRAVKCSELHVNKPIAMNCSNLWGNFSYGSICSFHCLEGQLLNGSAQTACQENGHWSTTVPTCQAGPLTIQEASTSITAYKSEGESAEFSFPLNLGEESLQGELRWKAEKAPSSQSWITFSLKNQKVSVQKSTSNPKFQLSETLPLTLQIPQVSLQFAGSGNLTLTLDRGILYQEVNLVVMKVTQPDSNTLTCEVMGPTSPKMRLILKQENQEARVSRQEKVIQVQAPEAGVWQCLLSEGEEVKMDSKIQVLSKGLNSGGGSGGGTGGGDLAPQMLRELQETNAALQDVRELLRQQVKEITFLKNTVMECDACGLDRNLPPLAPLGPHPETLVKVKDAEDQLGARVGYIELDLNSGKILESFRPEERFPMMSTFKVLLCGAVLSRIDAGQEQLGRRIHYSQNDLVEYSPVTEKHLTDGMTVRELCSAAITMSDNTAANLLLTTIGGPKELTAFLHNMGDHVTRLDRWEPELNEAIPNDERDTTMPVAMATTLRKLLTGELLTLASRQQLIDWMEADKVAGPLLRSALPAGWFIADKSGAGERGSRGIIAALGPDGKPSRIVVIYTTGSQATMDERNRQIAEIGASLIKHWGPDYKDHDGDYKDHDIDYKDDDDKGPHHHHHH
# Legend:
# Test in all cases: glycan array binding signal (z-score within array); higher = stronger binding
# Conditions in all cases: glycan notation: IUPAC condensed, linker removed
# [1] = molecular target: Fuc(a1-2)Gal
# Procedure, shortened: (§1)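 Glycan array data were curated from 3228 arrays in the Consortium for Functional Glycomics database and kept only where the protein sequence was available. Glycan names were converted to IUPAC-condensed notation, and columns mapping to the same glycan were averaged. The binding signal is a within-array Z-score, averaged across arrays of the same protein sequence at different concentrations or buffers and across linkers. Negative Z-scores can be read as non-binding.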
# [2] = molecular target: Fuc(a1-2)Gal(b1-3)GalNAc
# Procedure, shortened: as §1
# [3] = molecular target: Fuc(a1-2)Gal(b1-3)GalNAc(b1-3)Gal
# Procedure, shortened: as §1
# [4] = molecular target: Fuc(a1-2)Gal(b1-3)GalNAc(b1-3)Gal(a1-4)Gal(b1-4)Glc
# Procedure, shortened: as §1
# [5] = molecular target: Fuc(a1-2)Gal(b1-3)GalNAc(b1-4)[Neu5Ac(a2-3)]Gal(b1-4)Glc
# Procedure, shortened: as §1
# [6] = molecular target: Fuc(a1-2)Gal(b1-3)GlcNAc
# Procedure, shortened: as §1
# [7] = molecular target: Fuc(a1-2)Gal(b1-3)GlcNAc(b1-3)Gal(b1-4)Glc
# Procedure, shortened: as §1
# [8] = molecular target: Fuc(a1-2)Gal(b1-3)[Fuc(a1-4)]GlcNAc
# Procedure, shortened: as §1
# [9] = molecular target: Fuc(a1-2)Gal(b1-4)Glc
# Procedure, shortened: as §1
# [10] = molecular target: Fuc(a1-2)Gal(b1-4)Glc6S
# Procedure, shortened: as §1
# [11] = molecular target: Fuc(a1-2)Gal(b1-4)GlcNAc
# Procedure, shortened: as §1
# [12] = molecular target: Fuc(a1-2)Gal(b1-4)GlcNAc(b1-3)Gal(b1-4)GlcNAc
# Procedure, shortened: as §1
# [13] = molecular target: Fuc(a1-2)Gal(b1-4)GlcNAc(b1-3)Gal(b1-4)GlcNAc(b1-3)Gal(b1-4)GlcNAc
# Procedure, shortened: as §1
# [14] = molecular target: Fuc(a1-2)Gal(b1-4)GlcNAc6S
# Procedure, shortened: as §1
# [15] = molecular target: Fuc(a1-2)Gal(b1-4)[Fuc(a1-3)]GlcNAc
# Procedure, shortened: as §1
# [16] = molecular target: Fuc(a1-2)Gal(b1-4)[Fuc(a1-3)]GlcNAc(b1-3)Gal(b1-4)[Fuc(a1-3)]GlcNAc
# Procedure, shortened: as §1
# [17] = molecular target: Fuc(a1-2)Gal(b1-4)[Fuc(a1-3)]GlcNAc(b1-3)Gal(b1-4)[Fuc(a1-3)]GlcNAc(b1-3)Gal(b1-4)[Fuc(a1-3)]GlcNAc
# Procedure, shortened: as §1
# [18] = molecular target: Fuc(a1-2)Gal6S(b1-4)Glc
# Procedure, shortened: as §1
# [19] = molecular target: Fuc(a1-2)Gal6S(b1-4)Glc6S
# Procedure, shortened: as §1
# [20] = molecular target: Fuc(a1-2)Gal6S(b1-4)GlcNAc
# Procedure, shortened: as §1
# [21] = molecular target: Fuc(a1-2)[Gal(a1-3)]Gal
# Procedure, shortened: as §1
# [22] = molecular target: Fuc(a1-2)[Gal(a1-3)]Gal(b1-3)GlcNAc
# Procedure, shortened: as §1
# [23] = molecular target: Fuc(a1-2)[Gal(a1-3)]Gal(b1-4)Glc
# Procedure, shortened: as §1
# [24] = molecular target: Fuc(a1-2)[Gal(a1-3)]Gal(b1-4)GlcNAc
# Procedure, shortened: as §1
# [25] = molecular target: Fuc(a1-2)[Gal(a1-3)]Gal(b1-4)[Fuc(a1-3)]GlcNAc
# Procedure, shortened: as §1
# [26] = molecular target: Fuc(a1-2)[Gal(a1-4)]Gal(b1-4)GlcNAc
# Procedure, shortened: as §1
# [27] = molecular target: Fuc(a1-2)[GalNAc(a1-3)]Gal
# Procedure, shortened: as §1
# [28] = molecular target: Fuc(a1-2)[GalNAc(a1-3)]Gal(b1-3)GlcNAc
# Procedure, shortened: as §1
# [29] = molecular target: Fuc(a1-2)[GalNAc(a1-3)]Gal(b1-4)Glc
# Procedure, shortened: as §1
# [30] = molecular target: Fuc(a1-2)[GalNAc(a1-3)]Gal(b1-4)GlcNAc
# Procedure, shortened: as §1
binder,measurement,setting,value
B1,glycan array binding signal (z-score),[1],-0.092
same,glycan array binding signal (z-score),[2],-0.429
same,glycan array binding signal (z-score),[3],-0.105
same,glycan array binding signal (z-score),[4],-0.319
same,glycan array binding signal (z-score),[5],0.069
same,glycan array binding signal (z-score),[6],-0.319
same,glycan array binding signal (z-score),[7],-0.298
same,glycan array binding signal (z-score),[8],-0.328
same,glycan array binding signal (z-score),[9],0.196
same,glycan array binding signal (z-score),[10],-0.268
same,glycan array binding signal (z-score),[11],-0.13
same,glycan array binding signal (z-score),[12],-0.267
same,glycan array binding signal (z-score),[13],-0.153
same,glycan array binding signal (z-score),[14],-0.148
same,glycan array binding signal (z-score),[15],-0.385
same,glycan array binding signal (z-score),[16],-0.349
same,glycan array binding signal (z-score),[17],-0.214
same,glycan array binding signal (z-score),[18],-0.098
same,glycan array binding signal (z-score),[19],1.21
same,glycan array binding signal (z-score),[20],-0.134
same,glycan array binding signal (z-score),[21],-0.235
same,glycan array binding signal (z-score),[22],-0.491
same,glycan array binding signal (z-score),[23],-0.32
same,glycan array binding signal (z-score),[24],-0.305
same,glycan array binding signal (z-score),[25],0.127
same,glycan array binding signal (z-score),[26],-0.151
same,glycan array binding signal (z-score),[27],-0.224
same,glycan array binding signal (z-score),[28],-0.339
same,glycan array binding signal (z-score),[29],-0.331
same,glycan array binding signal (z-score),[30],-0.052
